Data reported in the RNAGym collection of RNA variant scans (doi:10.7554/elife.90254).
The source gives no read counts; variants with many changes may rest on few reads.

B1: LINE1-mini (parent)
chain: GGCAGAGCUCAACACAGCGUGGCAAAGUGGCUGUGGCUAGACUGCC

Variants of: B1
Test: self-cleavage, relative activity (ratio to wild type); higher = more cleavage; in vitro, sequencing; the parent is a self-cleaving ribozyme

Variant	self-cleavage
GGCAGAGCUCUGCACAGCGUGGCAAAAUGGCUGUGUCUAGUCUGCC [A11U A12G G27A G36U A41U]	0.01
GGCAGAGCUCGACACAGCGUGCCAAAGUGGUUAUGGCUAGACUGCA [A11G G22C C31U G33A C46A]	0
GGCAGAGCUCGACACAGCGUGGCAAAGUGGCUCUGGAUAGACUGCC [A11G G33C C37A]	0.01
GGCAGAGCUCUCCACAGCGUGGCAAAGUGGCUGUGGCUAGAGUGCC [A11U A12C C42G]	0.01
GGCAGAGCUCGACACAGCGUCGCAGAGAGGCUGUGGCUAGACUGCC [A11G G21C A25G U28A]	0.02
GGCAGAGCUCUCAACCGCGUGGCAAAGUGGCUGUGGCUGGUCUGCC [A11U A12C C13A A16C A39G A41U]	0
GGCAGAGCUCGACACAUCGUGGUAAAGUGGCUGUGGCUAGACUGCC [A11G G17U C23U]	0.03
GGCAGAGCUCUGCACGGCGUGGCAAAGUGGCUGUGGCUAGACUGUC [A11U A12G A16G C45U]	0
GGCAGAGCUCGACACAACGUGGCAAAGUGGCUGUGGCCAGACUGCC [A11G G17A U38C]	0.01
GGCAGAGCUCGACACAACGUGGCAAAGUGGCUGUGGCAAGACUGCC [A11G G17A U38A]	0.03
GGCAGAGCUCGACACAGAAUGGCAAAGUGGCUGUGGCUAGACUGCC [A11G C18A G19A]	0.01
GGCAGAGCUCGACACAGCGUGGCAAAGUGGCUGUUACUAGACUGUC [A11G G35U G36A C45U]	0.03
GGCAGAGCUCGACAAAGCGUGGCAAAGUGGCUGUGGCUAUACUGCC [A11G C15A G40U]	0.02
GGCAGAGCUCGACACAGUGUUGCAAAGUGGCUGUGGCUAGACUGCC [A11G C18U G21U]	0.02
GGCAGAGCUCGACACAGCGUGGCAAAUUGGCUGUGGAUAGACUGGC [A11G G27U C37A C45G]	0
GGCAGAGCUCGACAUAGCGUGGCAAAGUGGGUGUUGGUAGACUGCC [A11G C15U C31G G35U C37G]	0.01
GGCAGAGCUCGACACAGCGGGGCAACGUGGCUGUGGAUAAAUUGCC [A11G U20G A26C C37A G40A C42U]	0
GGCAGAGCUCGACACAGAGUGGCAAAGUGGCCGUGGCUAAACUGCC [A11G C18A U32C G40A]	0.01
GGCAGAGCUCUUCGCAGCGUGGCAAAGUGGCUGUGGCUAGACUGCC [A11U A12U A14G]	0.04

Variant	self-cleavage
GGCAGAGCUCGACACAUCGUGGCAAAGUGACUGUGGCUAGACUGCC [A11G G17U G30A]	0.05
GGCAGAGCUCGACACAGCGUGGCAAAGUGGCUGUGGCUAUACUUCC [A11G G40U G44U]	0.04
GGCAGAGCUCGACACAGCGUUGCAAAGUGUCUGUGGCUAGACUGCC [A11G G21U G30U]	0.01
GGCAGAGCUCGACACAGCGUGCCAGAGUGUCUGGCGCUAGACUGCC [A11G G22C A25G G30U U34G G35C]	0
GGCAGAGCUCGACAGAGCGUGGCAAAGGGCCUGUGGCUAGACUGCC [A11G C15G U28G G30C]	0
GGCAGAGCUCGACACAGCGUGGCAAAGUUGCUGUGGCUAGACUUCC [A11G G29U G44U]	0
GGCAGAGCUCGACACAGCGCGGCAAAGUGGUUGUGGCUACACUGCC [A11G U20C C31U G40C]	0.01
GGCAGAGCUCGACACAUCGUGGCAGAGUGGCUGUGGCUAGACUCCC [A11G G17U A25G G44C]	0
GGCAGAGCUCGACACAGCGUUCCAAAGUGGGUGUGGCUAGACGGCU [A11G G21U G22C C31G U43G C46U]	0.02
GGCAGAGCUCGACACAGCUUGGCAAAGUAGCUUUGGCUAGAUUGUC [A11G G19U G29A G33U C42U C45U]	0.01
GGCAGAGCUCGACACAGCGUGGCAAAGUGGCUGUGGUUAGACUGCA [A11G C37U C46A]	0
GGCAGAGCUCGACAAAGCGGGGCAAAAUGGCUGUGGCUGGACUGCC [A11G C15A U20G G27A A39G]	0.01
GGCAGAGCUCGACACAGCUUGGCAAAGUUGCAGUGGCUAGGCUUCC [A11G G19U G29U U32A A41G G44U]	0.01
GGCAGAGCUCGACACACCGUGGCAAAGUGGAUGUGGCUAGACUGCC [A11G G17C C31A]	0.01
GGCAGAGCUCGACACAGUGUGGCAAAGUGGCUGUCGCUCGACUGCA [A11G C18U G35C A39C C46A]	0
GGCAGAGCUCUCCACAGCGUGGCAAAGUGGAUGUGGCUAGACUGCC [A11U A12C C31A]	0.02
GGCAGAGCUCGACACAGCGGGGCAAAGUGGCUGUGACUAGGUUGCC [A11G U20G G36A A41G C42U]	0
GGCAGAGCUCGACACAGCGUUGCAAAUUGCCUGUGGCUAAACUGCC [A11G G21U G27U G30C G40A]	0.02
GGCAGAGCUCGACACAGCGUGGCAAAAUUGCUAUGGAUAUUCUGCC [A11G G27A G29U G33A C37A G40U A41U]	0

Variant	self-cleavage
GGCAGAGCUCUUCACAGCGUGACAAAGUGGCUGUGGCUAGACUGCC [A11U A12U G22A]	0.12
GGCAGAGCUCGACACAGCAUGGCAAAGUGGUUGCCGCGUGACUGCC [A11G G19A C31U U34C G35C U38G A39U]	0.02
GGCAGAGCUCGACACAGCGUGGUAAAGUGGCCGUGGCUAGACUGCC [A11G C23U U32C]	0.01
GGCAGAGCUCGACACAGUGUGGCAAAUUGGCUGUGGCUAGACUGCC [A11G C18U G27U]	0.03
GGCAGAGCUCGACACAGCGUGGCAAAAUGGCUGUGGCUAGACUACC [A11G G27A G44A]	0.03
GGCAGAGCUCGACACAGGGUGGCUAAGUGGCUGAGGAUAGACUGCC [A11G C18G A24U U34A C37A]	0
GGCAGAGCUCUUCACAGGGUGGCAAACUGGCUGUGGCUAGACUGCC [A11U A12U C18G G27C]	0
GGCAGAGCUCUCCACAGCGUGGCAAAGUGGCUCGGGCUAGACUGCC [A11U A12C G33C U34G]	0
GGCAGAGCUCGACACAGCGUGGCAAAGUGGUUGUGGCUAGUCUGCC [A11G C31U A41U]	0.02
GGCAGAGCUCGACACAGCCUCGCAAUGUUGCUGUGGCUGUACUGCC [A11G G19C G21C A26U G29U A39G G40U]	0.01
GGCAGAGCUCUCCACAGCGUGGCAAAGCGGCUGUGGAUAGUUUGCC [A11U A12C U28C C37A A41U C42U]	0
GGCAGAGCUCGACACAGUGUGGCAAAGUGGCUAUGGCUAGACCGCC [A11G C18U G33A U43C]	0.03
GGCAGAGCUCGACACAGAGUGACAAAGUGGCUGUGCCUAGACUGCC [A11G C18A G22A G36C]	0
GGCAGAGCUCGACAGAGCGUGGCAAAGUGUGUGUGGCUUGACUGCC [A11G C15G G30U C31G A39U]	0.01
GGCAGAGCUCGACACACCGUGGCAAAGUGACUGUGGCUAGACUGCC [A11G G17C G30A]	0.03
GGCAGAGCUCGACAUAGCGCGACAAAGUGACUGUGGCUAGACUGCC [A11G C15U U20C G22A G30A]	0.04
GGCAGAGCUCGACACAGCGUGUCAAAGUGGCUGUUGCUAGACUGCC [A11G G22U G35U]	0.01
GGCAGAGCUCGACACAGCUUGGCACAGUGGCUGUGGCUAGACUGCC [A11G G19U A25C]	0.04
